The record followed here is patent publication US5159002A, “Method for purifying dermostatin A and dermostatin B” (Xechem Inc., priority 1990, dated 1992).

The data set has as its system H9 cells. Kind of data set: Survival/viability of HIV-infected H9 cells (trypan blue exclusion), % control.
Where [1] appears, read: Table V, 0.01 μg/ml, HIV-1, 5760 min.
[2] abbreviates: Table V, 0.1 μg/ml, HIV-1, 5760 min.
[3] abbreviates: Table V, 1.0 μg/ml, HIV-1, 5760 min.
Setting [4] is: Table V, 5 μg/ml, HIV-1, 5760 min.

For the molecule `CC(C)C1OC(=O)/C=C/C=C/C=C/C=C/C=C/C=C/CC(O)C(C)C(O)CC(O)CC(O)CC(O)CC(O)CC(O)CC(O)CC(O)/C=C/C1C` (stereo not drawn) [Dermostatin A], the “Cell Survival (% Control)” value is 0 % Control under setting [1], 18 % Control under setting [2], 92 % Control under setting [3] and 99 % Control under setting [4].

With `CCC(C)C1OC(=O)/C=C/C=C/C=C/C=C/C=C/C=C/CC(O)C(C)C(O)CC(O)CC(O)CC(O)CC(O)CC(O)CC(O)CC(O)/C=C/C1C` (stereo not drawn) [Dermostatin B], the “Cell Survival (% Control)” value is recorded as 0 % Control under setting [1], 0 % Control under setting [2], 87 % Control under setting [3] and 97 % Control under setting [4].

`C[C@@H]1[C@H](O)[C@@H](C)/C=C/C=C/CC/C=C/C=C/C=C/C=C/C(O[C@H]2O[C@H](C)[C@@H](O)[C@H](N)[C@@H]2O)CC2O[C@](O)(CC(O)C(O)CCC(O)CC(O)CC(O)CC(=O)O[C@H]1C)CC(O)C2C(=O)O` (stereo partly drawn) [Nystatin, reference compound]: the “Cell Survival (% Control)” value is, setting by setting: (Table IV, conc. 0.01 (g/ml as printed), added with HIV, 4 days) 49 % Control; (Table IV, conc. 0.1 (g/ml as printed), added with HIV, 4 days) 58 % Control; (Table IV, conc. 1.0 (g/ml as printed), added with HIV, 4 days) 83 % Control; (Table IV, conc. 10 (g/ml as printed), added with HIV, 4 days) 110 % Control.
